Common to all, as to conditions: 20 mM HEPES pH 7.9, 100 mM NaCl, 1 mM DTT, 0.2 mg/mL BSA, 0.02% Triton X-100, 2% milk, 0.4 mg/mL salmon testes DNA; 1 h; temperature not stated; high values mean tight binding; double strand, one strand shown; sequences stand for … in GCCTAGCAC…GTGCTAGGTCTTGATTCGCTTGACGCTGCTG
The target in experiment [1] is PU.1 (IVT) (UniProt P17947). The experiment can be described thus: protein-binding microarray (PBM).
In experiment [2] the target is T1, FLI1 (endogenous, THP-1 nuclear extract) (UniProt Q01543).
T1 sequence: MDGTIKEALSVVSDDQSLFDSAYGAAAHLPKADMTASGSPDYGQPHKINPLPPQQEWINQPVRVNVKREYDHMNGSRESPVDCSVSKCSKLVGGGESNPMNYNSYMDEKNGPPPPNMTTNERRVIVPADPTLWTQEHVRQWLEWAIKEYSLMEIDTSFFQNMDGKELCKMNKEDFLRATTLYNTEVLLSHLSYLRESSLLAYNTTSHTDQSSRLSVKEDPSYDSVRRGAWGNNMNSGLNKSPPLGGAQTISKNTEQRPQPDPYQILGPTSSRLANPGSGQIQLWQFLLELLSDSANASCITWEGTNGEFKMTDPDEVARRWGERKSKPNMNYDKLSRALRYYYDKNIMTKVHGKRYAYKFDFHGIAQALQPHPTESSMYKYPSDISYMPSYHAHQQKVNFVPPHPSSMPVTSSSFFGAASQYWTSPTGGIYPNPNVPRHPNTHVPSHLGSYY
The experiment can be described thus: nuclear extract protein-binding microarray (nextPBM).

Experiment [3] has as its system PU.1 (endogenous, THP-1 nuclear extract) + IRF8 (endogenous, THP-1 nuclear extract). The experiment is described as above.

Some of the results follow. For part of these data: At the low end of the ranking the order means little. For part of these data: Measured with an extract: partners may take part in the binding.

The text below walks through data of paper PMC6451091.

GATAAGAGGCACTGAAAGCT: the values for the binding signal in experiment [1], in experiment [2] and in experiment [3] were -0.244 z-score, -0.48 z-score and -1.04 z-score, respectively.
As for AATGGCAGGAAGTGAAACTA, the binding signal in experiment [1] was 2.17 z-score; in experiment [2], 4.63 z-score; in experiment [3], 57.1 z-score.
The matching figures for TGGCAGAGGAAGTGAATCTA: 3.42 z-score, 2.7 z-score and 1.4 z-score.
Turning to AAAAGAAGGAAATGAAAGTA, the binding signal in experiment [1] was determined as 1.98 z-score; in experiment [2], 2.05 z-score; in experiment [3] it was 11.2 z-score.
The like results for TCCTGGGGGAAGTGAAACTG were, in that order, 2.71 z-score, 2.8 z-score and 40.4 z-score.
CAAAAGCAGAAGTGAAACTG: the results for the binding signal in experiment [1], in experiment [2] and in experiment [3] were 6.04 z-score, 4.29 z-score and 70.6 z-score, respectively.
On to TGGCAGAGGAAGTAAAACTA, for which the results for the binding signal in experiment [1], in experiment [2] and in experiment [3] were 3.6 z-score, 2.3 z-score and 0.929 z-score, respectively.
As for CTGGCATGGAACTGAAACTC, the results for the binding signal in experiment [1], in experiment [2] and in experiment [3] were -0.258 z-score, 0.218 z-score and 10.2 z-score, respectively.
The like results for TCAATGGGGAAGTGAAACTT were, in that order, 5.44 z-score, 3.65 z-score and 60.8 z-score.
With AAAAAGGGGAAGCGAAACTT, the binding signal came to 6.36 z-score in experiment [1], 3.45 z-score in experiment [2] and 68.2 z-score in experiment [3].
The matching figures for CTGCCGGGGAAGTGAAAGCA: 1.25 z-score, 0.913 z-score and 4.6 z-score.
Regarding AATAAGAGGAACTGAAAGCT, the binding signal in experiment [1] is 4.65 z-score; in experiment [2] it was 1.78 z-score; in experiment [3] it was 9.74 z-score.
The like results for AAAATGAGGAAGAGAAACTG were, in that order, 4.78 z-score, 1.82 z-score and 13.7 z-score.
In the case of TGCAGAGGGAAGTGAAACTG, the binding signal worked out at 3.24 z-score in experiment [1], 2.82 z-score in experiment [2] and 45.7 z-score in experiment [3].
On to CAGAAAGGGAAGTGAAACTT, for which the values for the binding signal in experiment [1], in experiment [2] and in experiment [3] were 5.07 z-score, 3.43 z-score and 55.4 z-score, respectively.
The like results for GCTTTAGGGAAGTGAAACTG were, in that order, 4.9 z-score, 2.81 z-score and 76 z-score.
The matching figures for TAAAAAGGGAAGTGAAACTC: 7.11 z-score, 3.73 z-score and 75.9 z-score.
The like results for CTGGCAGAGAACTGAAACTC were, in that order, -0.215 z-score, -0.512 z-score and 10.3 z-score.
On to CTGCCAGGGCAGTGAAAGCA, for which the binding signal in experiment [1] is -0.533 z-score; in experiment [2], -0.0835 z-score; in experiment [3], 1.19 z-score.
The like results for AAAAAAAGGAAATGAAAGTA were, in that order, 3.32 z-score, 2.46 z-score and 15.2 z-score.
The matching figures for CTGCCAGGGAAGTGAAAGTA: 1.1 z-score, 1.06 z-score and 21.2 z-score.
